Data published in paper PMC4336329 (PLoS ONE, 2015).
The whole screen tested about 310,000 compounds, of which about 14,000 (4.5%) showed an effect of 50% or more. Effects have a minus sign here. The list shows a part of the results.

The compounds below were run against human ether-à-go-go-related gene (hERG) potassium channel (human, UniProt Q12809) (assay: primary screen, population patch clamp on CHO cells stably expressing hERG).
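Further: peak tail current of the secondary pulse compared with the same well before compound.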

Chain of human ether-à-go-go-related gene (hERG) potassium channel (Q12809 whole entry, looked up): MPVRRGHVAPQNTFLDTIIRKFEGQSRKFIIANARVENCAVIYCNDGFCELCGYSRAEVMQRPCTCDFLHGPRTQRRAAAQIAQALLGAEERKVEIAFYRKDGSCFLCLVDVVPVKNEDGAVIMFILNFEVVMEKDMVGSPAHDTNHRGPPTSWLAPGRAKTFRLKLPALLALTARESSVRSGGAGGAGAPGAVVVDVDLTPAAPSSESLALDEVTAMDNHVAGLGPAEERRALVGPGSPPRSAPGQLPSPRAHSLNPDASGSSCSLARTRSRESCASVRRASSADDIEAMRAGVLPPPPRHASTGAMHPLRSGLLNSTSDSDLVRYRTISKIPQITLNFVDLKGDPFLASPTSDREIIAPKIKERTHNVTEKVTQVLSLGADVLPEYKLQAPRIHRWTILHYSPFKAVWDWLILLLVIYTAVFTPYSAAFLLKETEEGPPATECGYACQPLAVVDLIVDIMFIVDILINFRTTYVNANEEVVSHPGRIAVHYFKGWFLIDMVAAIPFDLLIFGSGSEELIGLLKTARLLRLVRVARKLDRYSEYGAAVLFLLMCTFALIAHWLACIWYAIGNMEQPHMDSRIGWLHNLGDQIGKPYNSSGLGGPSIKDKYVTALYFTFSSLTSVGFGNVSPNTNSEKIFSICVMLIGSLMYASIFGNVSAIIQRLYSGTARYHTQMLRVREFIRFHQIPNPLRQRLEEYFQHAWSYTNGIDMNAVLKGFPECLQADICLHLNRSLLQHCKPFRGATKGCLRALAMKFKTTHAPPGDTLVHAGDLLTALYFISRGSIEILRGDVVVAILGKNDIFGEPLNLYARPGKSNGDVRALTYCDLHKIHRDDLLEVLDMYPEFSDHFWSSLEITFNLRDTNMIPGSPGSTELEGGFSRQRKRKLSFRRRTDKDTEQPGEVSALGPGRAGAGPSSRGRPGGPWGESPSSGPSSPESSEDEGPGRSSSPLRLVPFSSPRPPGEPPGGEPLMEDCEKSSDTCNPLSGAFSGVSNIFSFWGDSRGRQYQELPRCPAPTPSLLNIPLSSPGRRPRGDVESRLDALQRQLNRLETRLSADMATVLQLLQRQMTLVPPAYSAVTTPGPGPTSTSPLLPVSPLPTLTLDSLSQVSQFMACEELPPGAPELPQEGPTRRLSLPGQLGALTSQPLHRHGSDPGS

Structure (SMILES)	hERG current change (%, negative = inhibition) at 10uM [%]
COc1ccc(CCN2Cc3c(cccc3[N+](=O)[O-])C2=O)cc1OC	-6.89
CCOC(=O)CSc1nc(=O)n2cccc(C)c2n1	-3.7
CC(C)OC(=O)C1C(=O)CC(C)(O)C(C(=O)OC(C)C)C1c1cccc([N+](=O)[O-])c1 (stereo not drawn)	20.9
O=C(O)C(=O)O.OCCNCCOCCOc1ccccc1-c1ccccc1	7.91
CN(C)CCCNC(=O)C(=O)Nc1cc2c3c(c1)CC(=O)N3CCC2	16
Cc1ccc(S(=O)(=O)N2CCC(C(=O)NC3CCCC3)CC2)cc1Cl	13.1
CC1CCN(S(=O)(=O)c2ccc([N+](=O)[O-])cc2)CC1	-3.23
O=[N+]([O-])c1ccc(-c2nnc(CNC3CCCC3)o2)cc1	-30
O=C(CSc1nc2ccccc2o1)Nc1ccccc1N1CCCCCC1	9.52
N#Cc1nc(-c2ccccc2Cl)oc1N1CCCCC1	1.41
CCC(=O)N/N=C(\C)CC(=O)Nc1ccc2ccccc2c1	15.5
Cc1c(Cl)cnc(NC(=O)COC(=O)c2ccc([N+](=O)[O-])s2)c1Cl	6.06
O=C(NCCN1CCOCC1)c1ccc(NS(=O)(=O)c2cccc([N+](=O)[O-])c2)cc1	10.6
O=C(O)C(NS(=O)(=O)c1ccc(F)cc1)c1ccccc1 (stereo not drawn)	13.8
COc1ccc(NC(=O)Nc2ncccc2C)cc1	6.54
Cc1nn2c3c(cnc2c1-c1ccc(Cl)cc1)C(=O)CC(c1ccco1)C3 (stereo not drawn)	2.61
Clc1cccc2sc(N3CCCC3)nc12	13.1
O=C1NCCN1C(=O)c1cccc(Cl)c1	4.69
Cc1ccc(NC(=O)C2CC2C)c(Cl)c1 (stereo not drawn)	4.11
Cl.OCCNCc1cc(Br)ccc1OCc1ccccc1Cl	-74.9
O=C(CSc1nc2cc(Cl)c(Cl)cc2[nH]1)c1ccc2c(c1)OCO2	7.8
Cc1cc(CNC(=O)c2ccc(C)c([N+](=O)[O-])c2)c2ccccc2n1	8.05
O=C(Oc1ccc(/C=N/O)cc1)c1ccccc1	-5.95

Structure (SMILES)	hERG current change (%, negative = inhibition) at 10uM [%]
N#Cc1cc2c(nc1SCc1ccccc1)CCCCC2	4.3
COCc1cc(C)nc(SCC(=O)NCC2CCCO2)c1C#N (stereo not drawn)	3.38
CC1=CC(C)[C@H](/C=N/n2c(=O)[nH]c3c([nH]c4ccc(Br)cc43)c2=O)C(C)C1 (stereo partly drawn)	-13.7
O=[N+]([O-])/C(=C\Nc1ccccc1)S(=O)(=O)c1ccccc1	-1.53
Nc1nc(-c2ccccc2)nc(-c2ccccc2O)n1	3.94
COc1ccccc1/C=C(/C(=O)OCC(=O)NCc1ccccc1)c1ccccc1	-5.43
O=C(OCc1cc2ccccc2[nH]c1=O)c1cccnc1	-2.16
C=CCN1C(=O)/C(=C/c2ccc(O)c(OC)c2)S/C1=N/c1nccs1	-11.4
COC(=O)Cn1c(=O)c(C)nc2ccccc21	1.24
Cc1ccc(-c2nn(-c3cccc(F)c3)cc2CN(Cc2nccn2C)C(C)C)o1	-21.4
CCOC(=O)c1c(C)[nH]c(C(=O)COC(=O)C(C)Oc2ccc(Cl)cc2Cl)c1C (stereo not drawn)	11.6
COC(=O)c1ccc(COC(=O)c2cccnc2Cl)cc1	-12.1
COc1ccc(S(=O)(=O)NCc2ccco2)cc1C(=O)N1CCOCC1	21
CCOc1ccc(N2CC(C(=O)OC)CC2=O)cc1 (stereo not drawn)	12.8
COc1cccc(-c2nc(CS(=O)(=O)CC(=O)NC3CC3)c(C)o2)c1	16.1
C=C(C)CSc1nnc([C@H](CCSC)NC(=O)OC(C)(C)C)o1	-14.3
CCOc1ccc(/C(O)=C2\C(=O)C(=O)N(c3ccc(OC)cc3)C2c2ccccc2[N+](=O)[O-])cc1 (stereo not drawn)	17.5
NC(=O)C1(NC(=O)[C@@H]2CC3(CC(c4cccc(NC(=O)[C@@H]5CCC(=O)N5)c4)=NO3)CN2C(=O)Cc2ccc(Cl)cc2)CC1 (stereo partly drawn)	36.8
Cc1cccc(NC(=S)N2CCN(C(=O)C3CCCO3)CC2)c1 (stereo not drawn)	3.34
CCOC(=O)c1ccc(NC(=O)CN2C(=O)CSC(C)C2=O)cc1 (stereo not drawn)	9.21
CN=c1scc(-c2cccs2)n1/N=C/c1ccc(O)c(O)c1O	10.2
COc1ccc(S(=O)(=O)n2nc(OC(=O)c3cccs3)cc2N)cc1	-3.07
O=C(CCCc1nc2ccccc2s1)N1CCN(S(=O)(=O)c2cccs2)CC1	-11.9

Structure (SMILES)	hERG current change (%, negative = inhibition) at 10uM [%]
O=C1c2ccccc2CN1C(CO)Cc1ccccc1 (stereo not drawn)	15
Cc1cccc(NS(=O)(=O)c2ccc3nc(-c4ccccc4)[nH]c3c2)c1C	11.8
O=C1c2cccnc2C(=O)N1Cc1ccc(S(=O)(=O)NCc2ccco2)s1	16.2
N#Cc1cccc(Cn2nnc(-c3ccccc3)n2)c1	-13.3
CCOc1cc(/C=N/O)ccc1OCc1ccc(F)cc1	1.24
CCC[C@H]1COCCS(=O)(=O)N1Cc1ccc(Br)cc1	-42
O=C(NCc1ccc2c(c1)OCO2)C1CC(=O)N(c2ccc(F)cc2)C1 (stereo not drawn)	-29.9
CCOc1cc(C(=O)NC(CC(=O)O)c2ccc(OC3CCCC3)cc2)cc(OCC)c1OCC (stereo not drawn)	20
COc1ccc2c(c1)CCc1c(C(=O)NCc3ccco3)noc1-2	-5.9
COCCn1c(SCC(=O)Nc2cc(C)on2)nnc1C(C)C	15.2
COc1cc(C=C2C(=O)OC(C)(C)OC2=O)cc(Cl)c1OCC(=O)Nc1ccccc1	7.77
O=C(NCc1cccs1)c1cnc(Cl)c(Cl)c1	11.7
CC(=O)c1nn(-c2ccc(Cl)cc2)cc1C(=O)c1ccc(C)cc1	8.63
C=CCc1cc(Cl)ccc1OCCNCCCOC.O=C(O)C(=O)O	-37.9
NC(CO)(CO)COCc1ccccc1	10.7
Cc1nc2ccccc2cc1C(=O)N/N=C/c1ccco1	19
COc1cc(CNCCN(C)C)c(Br)cc1OC1CCCC1.Cl	-24.7
COc1cc([N+](=O)[O-])ccc1NC(=S)Nc1cccc(C(=O)O)c1	14.3
O=C(C1CCCN(S(=O)(=O)c2cnc[nH]2)C1)N1CCN(c2ccc(Cl)cc2)CC1 (stereo not drawn)	-35
O=C(NCCCN1CCN(c2cccc(Cl)c2)CC1)c1ccc(N2CCCC2=O)cc1	-26.4
Cc1ccc(OCCC(=O)OCC(=O)NC(=O)NC2CCCC2)cc1	7.88
CCc1ccccc1OCC(=O)NNCC(=O)Nc1cccc(C#N)c1	-12.8
COc1cccc(CN(C)Cc2c(O)ccc3ccccc23)c1	1.89

Structure (SMILES)	hERG current change (%, negative = inhibition) at 10uM [%]
CCN1CCN(C(=O)C2CCN(S(=O)(=O)c3cc(Cl)ccc3Cl)CC2)CC1	-22.4
COc1ccc(Cl)cc1NC(=O)Cn1cccc1	-19.5
CC(C)OCCCNC(=O)c1cc(-c2cccs2)nc2ccccc12	0.89
CCOC(=O)[C@@H]1[C@H]2COc3ccccc3[C@@H]2N2C(=O)N(c3cccc(C)c3)C(=O)[C@]12C	-33.3
CCOC(=O)C1CCN(C(=O)c2ccccc2NS(=O)(=O)c2ccc(F)c(F)c2)CC1	-14.6
Cc1cc(C(=O)COC(=O)CN(C)S(=O)(=O)c2ccc(Cl)cc2)c(C)n1Cc1cccs1	-5.54
O=C(COc1ccc2ccccc2c1)NNC(=O)c1cccs1	5.22
O=C(NCCc1ccccc1)C(=S)N1CCCCC1	9.48
COc1cc(C(=O)Nc2nc(-c3ccc(Cl)cc3)c(C)s2)ccc1OCC(=O)Nc1ccc(F)cc1	8.89
C/C(=N\N1CCN(Cc2ccc(Cl)cc2)CC1)c1ccc(F)cc1	-51.6
Cn1c(NC(=O)/C=C/c2ccc(Cl)c(Cl)c2)cc(=O)n(C)c1=O	6.28
Cn1c(CN2CCCC2)nc2cc(NC(=O)c3ccco3)ccc21	7.42
CC(C)n1c(O)c(N=NC(=O)Cc2csc(N3CCOCC3)n2)c2ccccc21	7.82
C/C(CCC1CC(C)OC1=O)=N\NC(N)=O (stereo not drawn)	21.8
CC(C)OC(=O)CSc1nc2ccccc2s1	-1.21
O=C(CNC(=O)c1ccco1)Nc1cc(Cl)ccc1N1CCOCC1	-2.69
CC(Oc1ccc(Br)cc1)C(=O)NCC(c1ccco1)N1CCCCC1 (stereo not drawn)	-18.6
CCN(CC)S(=O)(=O)c1cccc(-c2n[nH]c(=S)n2CC(C)C)c1	6.22
O=C(c1ccccc1)c1c[nH]c(C(=O)NCc2cccnc2)c1	-3.55
CCOC(=O)N1CCC(N(CCN(C)C)C(=S)Nc2cccc(Cl)c2)CC1	-16.1
CCOC(=O)C(NC(=O)CC(C)C)(Nc1sc(C)c(CC)c1C#N)C(F)(F)F (stereo not drawn)	1.97
